This is an account of results in patent US5618830A (priority 1995, dated 1997).

The test deals with HIV Reverse Transcriptase (Human immunodeficiency virus type 1 group M subtype B, UniProt P04585). As to the kind of experiment: HIV Reverse Transcriptase assay. The class given is biochemical.

The structures appear in SMILES notation. Structures can show the parent of a compound that is named as a salt. Bounds are passed on as bounds.

In general, IC50 refers to the concentration at which inhibition is half-maximal.

Turning to `O=C(O)C(=O)CC(=O)C1(Cc2ccc(Cl)cc2)CCCN(Cc2ccccc2)C1` (stereo not shown) [Compound A, 4-[N-benzyl-3-(4-chlorobenzyl)piperidin-3-yl]2,4-dioxobutanoic acid hydrochloride], the IC50 was more than 300 µM.
